Molecular target: the molecule itself
Assay: ThT fluorescence; recombinant tau with 5% or 15% (protein mass) lysate of Tau4RD*LM-YFP cells propagating CBD or PSP tau, 20 mM HEPES pH 7.4, 37 °C, 24 h, 20 µM ThT, no cofactor

B1: cysless Tau187 P301L (domain or fragment)
chain: not shown
notes: numbers count on: the longest tau isoform, 2N4R (441 residues); In the assays it stood as monomer at the start and as fibrils at the end; also called recombinant Tau187; unlabeled Tau187; source: E. coli BL21 (DE3), purified (heat step, Ni-NTA, SEC; monomer fractions)
- binding result: binds

Source: article doi:10.1101/2023.07.19.549721, “Passaging Human Tauopathy Patient Samples in Cells Generates Heterogeneous Fibrils with a Subpopulation Adopting Disease Folds” (bioRxiv, 2023)
